{"source": "paper PMC4336329", "about": "(PLoS ONE, 2015)", "note": "Out of some 310,000 compounds screened, about 14,000 (4.5%) showed an effect of 50% or more. The effect is printed as a negative number. Some of the results follow."}
{"biological_target": "human ether-à-go-go-related gene (hERG) potassium channel (human, UniProt Q12809)", "sequence (Q12809 whole entry, looked up)": "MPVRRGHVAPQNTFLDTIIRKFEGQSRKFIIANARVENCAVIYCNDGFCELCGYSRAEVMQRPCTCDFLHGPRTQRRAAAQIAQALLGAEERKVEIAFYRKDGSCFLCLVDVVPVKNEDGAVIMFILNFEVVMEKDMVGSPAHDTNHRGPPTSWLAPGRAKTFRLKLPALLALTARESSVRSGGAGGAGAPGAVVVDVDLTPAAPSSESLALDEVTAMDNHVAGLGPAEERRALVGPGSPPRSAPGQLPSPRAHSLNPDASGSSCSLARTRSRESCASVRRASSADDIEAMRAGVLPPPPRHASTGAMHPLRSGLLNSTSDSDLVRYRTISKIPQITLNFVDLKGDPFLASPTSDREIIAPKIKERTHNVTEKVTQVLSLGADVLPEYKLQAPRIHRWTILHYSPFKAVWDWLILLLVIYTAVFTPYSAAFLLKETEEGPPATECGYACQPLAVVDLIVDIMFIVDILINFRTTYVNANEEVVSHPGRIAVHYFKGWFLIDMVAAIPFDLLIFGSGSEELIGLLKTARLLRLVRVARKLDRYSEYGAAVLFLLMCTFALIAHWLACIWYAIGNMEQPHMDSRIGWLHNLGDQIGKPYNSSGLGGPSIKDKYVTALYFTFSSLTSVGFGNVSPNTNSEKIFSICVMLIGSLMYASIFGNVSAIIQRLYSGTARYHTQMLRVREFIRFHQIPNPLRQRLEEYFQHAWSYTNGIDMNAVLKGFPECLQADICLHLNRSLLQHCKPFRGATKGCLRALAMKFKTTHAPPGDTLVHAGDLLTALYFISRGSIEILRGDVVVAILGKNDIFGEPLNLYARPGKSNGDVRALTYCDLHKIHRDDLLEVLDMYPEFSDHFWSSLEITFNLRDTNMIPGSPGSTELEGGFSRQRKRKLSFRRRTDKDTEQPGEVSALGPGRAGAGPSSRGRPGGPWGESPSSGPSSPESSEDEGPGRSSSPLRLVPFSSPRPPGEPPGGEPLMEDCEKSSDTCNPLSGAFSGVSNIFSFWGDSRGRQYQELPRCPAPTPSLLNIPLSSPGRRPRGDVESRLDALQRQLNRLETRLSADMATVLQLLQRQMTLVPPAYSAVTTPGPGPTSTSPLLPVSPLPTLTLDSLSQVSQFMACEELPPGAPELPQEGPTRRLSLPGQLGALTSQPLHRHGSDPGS", "experiment": "primary screen, population patch clamp on CHO cells stably expressing hERG", "units": {"hERG current change (%, negative = inhibition) at 10uM": "%"}}
{"compound": "CCOC(=O)N1CCN(S(=O)(=O)N2CCCC(C(=O)NCCCN3CCCCC3)C2)CC1", "note": "(stereo not drawn);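 further: peak tail current of the secondary pulse compared with the same well before compound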", "hERG current change (%, negative = inhibition) at 10uM": 10}
{"compound": "COCC(C)n1c(C)cc(C(=O)CSc2nnnn2-c2ccc(O)cc2)c1C", "note": "(stereo not drawn)", "hERG current change (%, negative = inhibition) at 10uM": -17.7}
{"compound": "COc1ccc(NC(=O)NCc2ccncc2)cc1", "hERG current change (%, negative = inhibition) at 10uM": 13.8}
{"compound": "CCCCN1CC[C@H]2C=CC[C@@H](C(=O)NCCc3ccccc3)[C@H]2C1=O", "hERG current change (%, negative = inhibition) at 10uM": -6.93}
{"compound": "Cn1nnnc1SCC(=O)Nc1ccccc1Cc1ccccc1", "hERG current change (%, negative = inhibition) at 10uM": -5.05}
{"compound": "Cc1sc2ncn(CC(=O)NCCCC(=O)N3CCC(C(N)=O)CC3)c(=O)c2c1C", "hERG current change (%, negative = inhibition) at 10uM": 20.4}
{"compound": "O=C(c1ccc2ccccc2c1)N1CCCC1", "hERG current change (%, negative = inhibition) at 10uM": 19.2}
{"compound": "COc1ccc(CN(C(=O)CN2C(=O)COc3ccccc32)C2CCCC2)c(OC)c1", "hERG current change (%, negative = inhibition) at 10uM": -13.9}
{"compound": "COc1ccccc1C(=O)C1CCCN(C(=O)c2ccc3c(c2)OCCO3)C1", "note": "(stereo not drawn)", "hERG current change (%, negative = inhibition) at 10uM": 2}
{"compound": "Cc1ccccc1OCC(=O)Nc1ccc(S(=O)(=O)Nc2ccccn2)cc1", "hERG current change (%, negative = inhibition) at 10uM": 0.077}
{"compound": "COc1ccccc1CNS(=O)(=O)c1c(C)[nH]c(=O)[nH]c1=O", "hERG current change (%, negative = inhibition) at 10uM": 11.7}
{"compound": "Cc1ccccc1NC(=O)c1ccc(Cl)c(NC(=O)c2cccnc2)c1", "hERG current change (%, negative = inhibition) at 10uM": -6.19}
{"compound": "COc1ccc(COC(=O)c2c(C)nn(-c3ccccc3)c2Cl)cc1", "hERG current change (%, negative = inhibition) at 10uM": 4.32}
{"compound": "CSCCC(NS(=O)(=O)c1ccc(C)cc1)C(=O)N1CCN(C(c2ccccc2)c2ccccc2)CC1", "note": "(stereo not drawn)", "hERG current change (%, negative = inhibition) at 10uM": 12.8}
{"compound": "COc1ccc(N2CCc3c(C)nc(SC)nc32)cc1", "hERG current change (%, negative = inhibition) at 10uM": 3.4}
{"compound": "Cc1ccccc1C(=O)NNC(=S)NC(=O)c1ccccc1", "hERG current change (%, negative = inhibition) at 10uM": 32.6}
{"compound": "CN1CCN(c2ccc3nccnc3c2)CC1", "hERG current change (%, negative = inhibition) at 10uM": 5.45}
{"compound": "O=C1C(Cl)=C(NCc2cccnc2)C(=O)c2ccccc21", "hERG current change (%, negative = inhibition) at 10uM": -3.77}
{"compound": "CNC(=O)CCSSCCC(=O)NC", "hERG current change (%, negative = inhibition) at 10uM": 15.9}
{"compound": "Cc1c(N2C(=O)/C(=C/C3CC=CCC3)SC2=S)c(=O)n(-c2ccccc2)n1C", "note": "(stereo not drawn)", "hERG current change (%, negative = inhibition) at 10uM": 2.86}
{"compound": "O=C(CSc1nccn1Cc1ccccc1)NCc1ccccc1", "hERG current change (%, negative = inhibition) at 10uM": -0.489}
{"compound": "O=C(NC1CSCC1OC(=O)c1ccccc1)c1ccccc1", "note": "(stereo not drawn)", "hERG current change (%, negative = inhibition) at 10uM": -21.1}
{"compound": "CC(/C=N/NC(=O)C(O)c1ccccc1)=C\\c1ccccc1", "note": "(stereo not drawn)", "hERG current change (%, negative = inhibition) at 10uM": -11.5}
{"compound": "Cn1c(Cc2ccc3c(c2)OCO3)nnc1SCC(=O)NC1CCCC1", "hERG current change (%, negative = inhibition) at 10uM": 4.01}
{"compound": "CC(CN1CCCCC1)c1ccccc1.O=C(O)C(=O)O", "note": "(stereo not drawn)", "hERG current change (%, negative = inhibition) at 10uM": 13.1}
{"compound": "O=C(NCCCNCc1ccccc1)c1ccc(/C=N/O)nc1", "hERG current change (%, negative = inhibition) at 10uM": -14.2}
{"compound": "CCOc1ccc(NC(=O)CNC(=O)c2nn(-c3ccc(OC)cc3)c(=O)c3ccccc23)cc1", "hERG current change (%, negative = inhibition) at 10uM": 21.2}
{"compound": "Cc1nnc(SCC(=O)N2CCOCC2)n1C", "hERG current change (%, negative = inhibition) at 10uM": -1.96}
{"compound": "COc1ccc(NC(=O)NC(C)c2ccncc2)cc1OC", "note": "(stereo not drawn)", "hERG current change (%, negative = inhibition) at 10uM": -0.974}
{"compound": "CCN(CC(=O)Nc1c(F)cccc1F)C(=O)CNC(=O)c1ccc2c(c1)OCO2", "hERG current change (%, negative = inhibition) at 10uM": -6.36}
{"compound": "Cc1cn(C(=O)C(C)N2C(=O)c3ccccc3C2=O)c(C)n1", "note": "(stereo not drawn)", "hERG current change (%, negative = inhibition) at 10uM": -1.3}
{"compound": "Cn1c(N)c(S(=O)(=O)NCc2ccc(Cl)cc2)c(=O)n(C)c1=O", "hERG current change (%, negative = inhibition) at 10uM": 24.3}
{"compound": "CN(C)/C=C/C(=O)c1cccc([N+](=O)[O-])c1", "hERG current change (%, negative = inhibition) at 10uM": 4.2}
{"compound": "CN1CCc2nc(SCC(=O)OC(C)(C)C)c(C#N)cc2C1", "hERG current change (%, negative = inhibition) at 10uM": -13.7}
{"compound": "CCC(=O)NC1(C(F)(F)F)C(=O)Nc2c1c(=O)[nH]c(=O)n2Cc1ccco1", "note": "(stereo not drawn)", "hERG current change (%, negative = inhibition) at 10uM": 8.93}
{"compound": "COCCOC(=O)C1=C(C)N=c2s/c(=C\\c3cccs3)c(=O)n2C1c1cccs1", "note": "(stereo not drawn)", "hERG current change (%, negative = inhibition) at 10uM": 9.93}
{"compound": "N#C/C(=C\\C=C\\c1ccccc1)C(=O)Nc1ccccc1", "hERG current change (%, negative = inhibition) at 10uM": 14.6}
{"compound": "CC1=CC(C)(C)Nc2cc(C)c(C)cc21", "hERG current change (%, negative = inhibition) at 10uM": -4.74}
{"compound": "CCOc1ccc(NC(=O)COC(=O)CCC(=O)c2cccs2)cc1", "hERG current change (%, negative = inhibition) at 10uM": 5.07}
{"compound": "CSc1nc(N)n2nc(-c3ccc(Cl)cc3)cc2n1", "hERG current change (%, negative = inhibition) at 10uM": 5.44}
{"compound": "CCOc1cccc(C(=O)Nc2ccncc2)c1", "hERG current change (%, negative = inhibition) at 10uM": 14.1}
{"compound": "Cc1ccc2cc(/C=N/NC(=O)[C@@H]3CCCN3)c(Cl)nc2c1.Cl", "hERG current change (%, negative = inhibition) at 10uM": -18.2}
{"compound": "Cc1nn(C)cc1CNCc1c(C(=O)N2CCCCC2)nc2c(C)cccn12", "hERG current change (%, negative = inhibition) at 10uM": -2.52}
{"compound": "CC[C@@]12C(=O)N(c3cccc(C)c3)C(=O)N1[C@H](c1ccc(OC)cc1)[C@@H]1C(=O)N(C(C)(C)C)C(=O)[C@@H]12", "hERG current change (%, negative = inhibition) at 10uM": 3.75}
{"compound": "Cc1ccc(NC2=Nc3ccccc3CS2)cc1", "hERG current change (%, negative = inhibition) at 10uM": 8.04}
